# Experimental data: the supplement of paper PMC4166925
# ± gives the standard deviation of the averaged measurements. In all, about 33,000 sequences were measured (“E-score (dimensionless, -0.5 to 0.5)”: median about -0.046, highest 2% from about 0.36 on). This is one part of the list.
# System: T1, SpTbr T-box DNA-binding domain (GST fusion)
# T1 sequence: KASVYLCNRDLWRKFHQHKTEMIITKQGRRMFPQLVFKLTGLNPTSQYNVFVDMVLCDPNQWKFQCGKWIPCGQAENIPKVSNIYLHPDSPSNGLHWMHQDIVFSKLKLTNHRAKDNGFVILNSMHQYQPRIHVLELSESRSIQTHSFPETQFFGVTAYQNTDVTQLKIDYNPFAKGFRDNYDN
# Assay: PBM E-score of 8-mer (E-score (dimensionless, -0.5 to 0.5)); Tbr is Tbrain of the sea star Patiria miniata (Pm) or the sea urchin Strongylocentrotus purpuratus (Sp); higher = stronger binding preference; most listed sequences are background and not binding sites
# Settings: the construct has about 5 more residues each side
# Protocol: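 Universal protein-binding microarray (Agilent AMADID 016060, 60-bp probes with a 35-bp variable region) incubated with 200 nM GST-fused Strongylocentrotus purpuratus Tbr T-box DNA-binding domain (residues 362-554) in PBS pH 7.5. Scored for every ungapped 8-mer (given with its reverse complement) as E-score (range -0.5 to 0.5; >0.45 counts as bound) and Z-score of median probe intensity. Two replicate arrays (datasets 1 and 2).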
# 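Further: protein at 200 nM in PBS on universal double-stranded arrays.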
row,Sequence,PBM E-score of 8-mer
1,AGCGATAA,0.11 ± 0.049
2,ACAGGCCT,-0.2194 ± 0.0011
3,CGTAACAC,0.3104 ± 0.0022
4,AAGTAGGG,-0.249 ± 0.0035
5,CAACCTAC,0.0733 ± 0.011
6,AACTTTTC,0.0515 ± 0.043
7,AGGGCCGG,-0.202 ± 0.022
8,AACTGGGC,-0.112 ± 0.0045
9,AACATCCC,-0.0172 ± 0.0071
10,GGGACGCA,-0.0288 ± 0.0073
11,CAGTATTA,-0.128 ± 0.043
12,ACGAGAAT,0.0428 ± 0.0091
13,AATTGACC,-0.257 ± 0.062
14,CGCACTAG,0.127 ± 0.038
15,CTATCCCC,-0.125 ± 0.02
16,CGCTCTAG,0.151 ± 0.055
17,CAGGACGA,-0.18 ± 0.01
18,AGGTTCCC,-0.21 ± 0.036
19,AAACTGCA,-0.132 ± 0.12
20,ACCGGAAG,0.0124 ± 0.045
21,AGAGCTAT,-0.0799 ± 0.044
22,CCTACTGC,-0.0828 ± 0.017

row,Sequence,PBM E-score of 8-mer
1,CATCCCTA,-0.192 ± 0.0054
2,GTCTACAC,0.305 ± 0.024
3,AACTAACA,0.214 ± 0.0048
4,AATATCCG,-0.204 ± 0.02
5,GTCAGTAA,0.139 ± 0.037
6,AGTAACCA,-0.0145 ± 0.0049
7,AACCACTC,-0.0818 ± 0.029
8,CGAGCGAC,0.137 ± 0.086
9,AAGCATCT,-0.1465 ± 0.0013
10,CCCTATCA,0.0101 ± 0.042
11,ACAATTGT,0.189 ± 0.12
12,ACCTATGA,-0.0199 ± 0.011
13,GGGCTTAC,-0.179 ± 0.063
14,AAGGTGTG,0.4816 ± 0.0018
15,CCCCTCAA,-0.0881 ± 0.025
16,CTACGTCC,-0.0646 ± 0.097
17,GTACCCCA,-0.151 ± 0.0011
18,ACAGGGCT,-0.316 ± 0.0043
19,ACATTACC,-0.123 ± 0.062
20,ACGTAGCC,-0.173 ± 0.05
21,ATTTAAGA,-0.171 ± 0.0076
22,ATTAGCCA,-0.143 ± 0.042

row,Sequence,PBM E-score of 8-mer
1,GTCTATCA,-0.154 ± 0.035
2,CCGGGGAC,-0.204 ± 0.11
3,ACAGGAAA,-0.082 ± 0.075
4,ACCTCGAA,0.131 ± 0.021
5,ACATGATA,-0.0776 ± 0.018
6,GCTGTTCA,0.065 ± 0.028
7,ACAGAATA,-0.196 ± 0.035
8,GAATACAC,-0.00509 ± 0.048
9,GCAAGTGA,0.274 ± 0.015
10,TAGGACAA,-0.145 ± 0.091
11,AGGTTACA,0.0184 ± 0.028
12,CCCGTGGC,0.00164 ± 0.026
13,GCCACCTA,0.285 ± 0.036
14,AATCCAAA,0.036 ± 0.035
15,CATGGGCA,-0.0485 ± 0.0061
16,GTGCAGCA,-0.173 ± 0.0097
17,AATTCACG,0.345 ± 0.01
18,CCAAGTGC,0.32 ± 0.033
19,GACCCGGA,-0.0041 ± 0.034
20,GACATGGC,-0.266 ± 0.056
21,CATACCCG,0.0224 ± 0.064
22,GGAATCAA,-0.0726 ± 0.0034

row,Sequence,PBM E-score of 8-mer
1,ACACGCCC,0.16 ± 0.025
2,GAGTACAA,-0.0957 ± 0.051
3,ATAGTGAA,0.0382 ± 0.012
4,CGGACAAC,-0.0656 ± 0.02
5,CCCGAGCA,-0.282 ± 0.017
6,CGAACGGA,-0.0224 ± 0.087
7,CACATGAC,0.211 ± 0.02
8,AATAATGT,-0.0989 ± 0.12
9,AAAAGCTG,-0.0405 ± 0.066
10,ACAAACAT,0.0766 ± 0.034
11,CCAGAGTC,-0.184 ± 0.012
12,GTAACGCA,0.162 ± 0.055
13,ACACGGGT,0.165 ± 0.015
14,ATTCAGTA,-0.243 ± 0.018
15,ATGTCTTA,-0.124 ± 0.012
16,CCAGCTAA,-0.0736 ± 0.034
17,GACCGGCA,0.0692 ± 0.091
18,GTGATGAA,0.253 ± 0.013
19,ACCTACAC,0.13 ± 0.011
20,TCCCAAGA,-0.0198 ± 0.058
